In the supplement of paper PMC10369915:
The other results are listed elsewhere or left out. Rule as the data show it: active = 3.2 or more and inactive = the rest. The signal is at background level for most entries.

Tests used:
Assay in all cases: enrichment score (SH2-bound / input frequency) (ratio); bacterial display of known human phosphotyrosine sites (pTyr-Var adds point mutants) read by sequencing; higher = stronger binding; tyrosines were phosphorylated by kinases first
Conditions in all cases: peptide library: pTyr-Var
SHP2 C-SH2 domain E139D = target: SHP2 C-SH2 domain E139D
[1] = target: SHP2 C-SH2 domain wild-type
SHP2 N-SH2 domain L43F = target: SHP2 N-SH2 domain L43F
SHP2 N-SH2 domain T42A = target: SHP2 N-SH2 domain T42A
SHP2 N-SH2 domain T52S = target: SHP2 N-SH2 domain T52S
[2] = target: SHP2 N-SH2 domain wild-type

Measured: enrichment score
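Also: displayed peptides selected on beads carrying the immobilized SH2 domain, with library peptides lacking any tyrosine serving as negative controls.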

DEEPPDRGPFC [SASH1_Y551_Y551D]
inactive: SHP2 C-SH2 domain E139D 0.37 | [1] 0.393 | SHP2 N-SH2 domain L43F 0.391 | SHP2 N-SH2 domain T42A 0.456 | SHP2 N-SH2 domain T52S 0.525 | [2] 0.517

HEKKAYAFCGT [RPS6KA3_Y226_S227A]
inactive: SHP2 C-SH2 domain E139D 0.852 | [1] 0.848 | SHP2 N-SH2 domain L43F 0.87 | SHP2 N-SH2 domain T42A 1.02 | SHP2 N-SH2 domain T52S 0.733 | [2] 0.986

RKRQFYLFKGK [RSPO4_Y112_C107R_YF]
inactive: SHP2 C-SH2 domain E139D 0.204 | [1] 0.861 | SHP2 N-SH2 domain L43F 0.422 | SHP2 N-SH2 domain T42A 0.348 | SHP2 N-SH2 domain T52S 0.205 | [2] 0.197

TLKDVCDDGKF [RPS6KA3_Y483_Y483C_YF]
inactive: SHP2 C-SH2 domain E139D 0.636 | [1] 0.762 | SHP2 N-SH2 domain L43F 0.75 | SHP2 N-SH2 domain T42A 0.603 | SHP2 N-SH2 domain T52S 0.827 | [2] 0.773

LTFPDYLPCSV [SAG_Y129]
inactive: SHP2 C-SH2 domain E139D 0.993 | [1] 1.1 | SHP2 N-SH2 domain L43F 0.902 | SHP2 N-SH2 domain T42A 0.796 | SHP2 N-SH2 domain T52S 0.839 | [2] 1.45

ASLEAYCKHKF [RXRA_Y403_YF]
inactive: SHP2 C-SH2 domain E139D 0.826 | [1] 0.938 | SHP2 N-SH2 domain L43F 0.766 | SHP2 N-SH2 domain T42A 0.992 | SHP2 N-SH2 domain T52S 1.05 | [2] 0.858

LGSNTYPFLLT [SAG_Y120]
inactive: SHP2 C-SH2 domain E139D 0.841 | [1] 0.798 | SHP2 N-SH2 domain L43F 0.789 | SHP2 N-SH2 domain T42A 0.854 | SHP2 N-SH2 domain T52S 0.936 | [2] 1.18

IITVHYVLEES [RYR2_Y4559_A4556T]
active: SHP2 C-SH2 domain E139D 3.51
inactive: [1] 2.93 | SHP2 N-SH2 domain L43F 2.61 | SHP2 N-SH2 domain T42A 2.82 | SHP2 N-SH2 domain T52S 3.16 | [2] 2.34

NNRVFYGNSDR [RS1_Y177]
inactive: SHP2 C-SH2 domain E139D 0.842 | [1] 0.658 | SHP2 N-SH2 domain L43F 0.714 | SHP2 N-SH2 domain T42A 0.765 | SHP2 N-SH2 domain T52S 0.739 | [2] 0.694

AIMSFYAALID [RYR1_Y2426]
inactive: SHP2 C-SH2 domain E139D 1.98 | [1] 2.11 | SHP2 N-SH2 domain L43F 2.07 | SHP2 N-SH2 domain T42A 1.96 | SHP2 N-SH2 domain T52S 2.01 | [2] 1.85

QRRLVYFERGA [RYR1_Y245_G248R_YF]
inactive: SHP2 C-SH2 domain E139D 0.597 | [1] 0.38 | SHP2 N-SH2 domain L43F 0.732 | SHP2 N-SH2 domain T42A 0.561 | SHP2 N-SH2 domain T52S 0.51 | [2] 0.617

QRRLVYYERGA [RYR1_Y245_G248R]
inactive: SHP2 C-SH2 domain E139D 0.535 | [1] 0.678 | SHP2 N-SH2 domain L43F 0.76 | SHP2 N-SH2 domain T42A 0.553 | SHP2 N-SH2 domain T52S 0.386 | [2] 0.336

PYRQWYESHYA [RPS8_Y113]
inactive: SHP2 C-SH2 domain E139D 1.5 | [1] 1.18 | SHP2 N-SH2 domain L43F 1.3 | SHP2 N-SH2 domain T42A 1.68 | SHP2 N-SH2 domain T52S 1.44 | [2] 1.2

RLNCIYFKDQT [RS1_Y165_W163C_YF]
inactive: SHP2 C-SH2 domain E139D 1.9 | [1] 2.13 | SHP2 N-SH2 domain L43F 1.57 | SHP2 N-SH2 domain T42A 1.34 | SHP2 N-SH2 domain T52S 1.61 | [2] 1.89

LNWIFYKDQTG [RS1_Y166_YF]
inactive: SHP2 C-SH2 domain E139D 2.46 | [1] 2.4 | SHP2 N-SH2 domain L43F 2.5 | SHP2 N-SH2 domain T42A 2.32 | SHP2 N-SH2 domain T52S 2.42 | [2] 2.8

AIDDKYSRREE [SART1_Y685]
inactive: SHP2 C-SH2 domain E139D 0.563 | [1] 0.565 | SHP2 N-SH2 domain L43F 0.664 | SHP2 N-SH2 domain T42A 0.524 | SHP2 N-SH2 domain T52S 0.481 | [2] 0.476

IDSTPYRQWFE [RPS8_Y109_YF]
inactive: SHP2 C-SH2 domain E139D 0.999 | [1] 0.947 | SHP2 N-SH2 domain L43F 0.835 | SHP2 N-SH2 domain T42A 0.726 | SHP2 N-SH2 domain T52S 0.926 | [2] 1.08

IIRQLYLKWHP [SACS_Y4333_R4331Q]
inactive: SHP2 N-SH2 domain T42A 2.73 | SHP2 N-SH2 domain T52S 3.08
active: SHP2 C-SH2 domain E139D 3.87 | [1] 3.36 | SHP2 N-SH2 domain L43F 3.43 | [2] 3.79

DEEPPYRGPFC [SASH1_Y551]
inactive: SHP2 C-SH2 domain E139D 0.583 | [1] 0.588 | SHP2 N-SH2 domain L43F 0.58 | SHP2 N-SH2 domain T42A 0.397 | SHP2 N-SH2 domain T52S 0.438 | [2] 0.614

ETKRPYTVILI [SBDS_Y128]
inactive: SHP2 C-SH2 domain E139D 0.79 | [1] 0.97 | SHP2 N-SH2 domain L43F 0.93 | SHP2 N-SH2 domain T42A 0.962 | SHP2 N-SH2 domain T52S 0.844 | [2] 0.935

ICTVDYLLRLQ [RYR1_Y3921]
inactive: SHP2 C-SH2 domain E139D 1.25 | [1] 1.5 | SHP2 N-SH2 domain L43F 1.24 | SHP2 N-SH2 domain T42A 1.12 | SHP2 N-SH2 domain T52S 1.14 | [2] 1.52

LNCIYYKDQTG [RS1_Y166_W163C]
inactive: SHP2 C-SH2 domain E139D 1.01 | [1] 1.74 | SHP2 N-SH2 domain L43F 1.26 | SHP2 N-SH2 domain T42A 1.33 | SHP2 N-SH2 domain T52S 1.15 | [2] 1.75

IDSTPYGQWFE [RPS8_Y109_R110G_YF]
inactive: SHP2 C-SH2 domain E139D 0.82 | [1] 0.577 | SHP2 N-SH2 domain L43F 0.693 | SHP2 N-SH2 domain T42A 0.766 | SHP2 N-SH2 domain T52S 0.7 | [2] 0.763

IGVDSYSVCKR [RPS6KA3_Y433_G431D]
inactive: SHP2 C-SH2 domain E139D 0.659 | [1] 0.674 | SHP2 N-SH2 domain L43F 0.468 | SHP2 N-SH2 domain T42A 0.581 | SHP2 N-SH2 domain T52S 0.598 | [2] 0.704

MCTVDYLLRLQ [RYR1_Y3921_I3916M]
inactive: SHP2 C-SH2 domain E139D 1.26 | [1] 1.33 | SHP2 N-SH2 domain L43F 1.03 | SHP2 N-SH2 domain T42A 1.16 | SHP2 N-SH2 domain T52S 1.06 | [2] 1.26

ASLEAYCKHKY [RXRA_Y403]
inactive: SHP2 C-SH2 domain E139D 1.05 | [1] 1.43 | SHP2 N-SH2 domain L43F 1.14 | SHP2 N-SH2 domain T42A 1.04 | SHP2 N-SH2 domain T52S 1.4 | [2] 1.46

QRRLVYYEGGA [RYR1_Y245]
inactive: SHP2 C-SH2 domain E139D 0.629 | [1] 0.546 | SHP2 N-SH2 domain L43F 0.522 | SHP2 N-SH2 domain T42A 0.593 | SHP2 N-SH2 domain T52S 0.634 | [2] 0.957

PFRQWYESHFA [RPS8_Y113_YF]
inactive: SHP2 C-SH2 domain E139D 2.86 | [1] 2.38 | SHP2 N-SH2 domain L43F 2.95 | SHP2 N-SH2 domain T42A 2.54 | SHP2 N-SH2 domain T52S 2.27 | [2] 2.62

FFRKFCNKSED [RYR1_Y4864_Y4864C]
inactive: SHP2 C-SH2 domain E139D 0.54 | [1] 0.49 | SHP2 N-SH2 domain L43F 0.423 | SHP2 N-SH2 domain T42A 0.602 | SHP2 N-SH2 domain T52S 0.684 | [2] 0.561

FFRKFYNKSED [RYR1_Y4864]
inactive: SHP2 C-SH2 domain E139D 0.309 | [1] 0.438 | SHP2 N-SH2 domain L43F 0.191 | SHP2 N-SH2 domain T42A 0.424 | SHP2 N-SH2 domain T52S 0.397 | [2] 0.513

TLKDVCDDGKY [RPS6KA3_Y483_Y483C]
inactive: SHP2 C-SH2 domain E139D 0.749 | [1] 0.607 | SHP2 N-SH2 domain L43F 0.651 | SHP2 N-SH2 domain T42A 0.689 | SHP2 N-SH2 domain T52S 0.747 | [2] 0.708

AIMSFYAALIN [RYR1_Y2426_D2431N]
inactive: SHP2 C-SH2 domain E139D 2.42 | [1] 2.49 | SHP2 N-SH2 domain L43F 2.43 | SHP2 N-SH2 domain T42A 2.19 | SHP2 N-SH2 domain T52S 2.18 | [2] 2.43

FAREGYSALPQ [SARS2_Y52_YF]
inactive: SHP2 C-SH2 domain E139D 0.663 | [1] 0.746 | SHP2 N-SH2 domain L43F 0.895 | SHP2 N-SH2 domain T42A 0.651 | SHP2 N-SH2 domain T52S 0.595 | [2] 0.884

YAREGYSALPQ [SARS2_Y52]
inactive: SHP2 C-SH2 domain E139D 0.658 | [1] 0.681 | SHP2 N-SH2 domain L43F 0.616 | SHP2 N-SH2 domain T42A 0.481 | SHP2 N-SH2 domain T52S 0.583 | [2] 0.725

RLNWIYYKDQT [RS1_Y165]
inactive: SHP2 C-SH2 domain E139D 1.32 | [1] 1.06 | SHP2 N-SH2 domain L43F 1.15 | SHP2 N-SH2 domain T42A 1.07 | SHP2 N-SH2 domain T52S 1.11 | [2] 1.28

RRQDLYSARDL [SART1_Y249]
inactive: SHP2 C-SH2 domain E139D 0.365 | [1] 0.236 | SHP2 N-SH2 domain L43F 0.205 | SHP2 N-SH2 domain T42A 0.357 | SHP2 N-SH2 domain T52S 0.289 | [2] 0.313

VSLEAYCKHKF [RXRA_Y403_A398V_YF]
inactive: SHP2 C-SH2 domain E139D 1.35 | [1] 1.52 | SHP2 N-SH2 domain L43F 1.63 | SHP2 N-SH2 domain T42A 1.02 | SHP2 N-SH2 domain T52S 1.27 | [2] 1.76
